Results: ChEMBL document CHEMBL1201862, “PubChem BioAssay data set” (2004)
Several values for one entry are separate records, joined by “and”; a condition that tells them apart may be missing. Identical values can stand only once.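 Values below derive from 48-hour exposures of cells grown in 96-well plates, with endpoints linearly interpolated between the two concentrations bracketing the appropriate inhibition level. The concentration for 50% growth inhibition is given as GI50.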 Activity calls are given as the source filed them. Rule as the data show it: active = GI50 up to about 1.1 µM and inactive = higher. Bridge positions count the residues as written; N and C are the ends. Square brackets hold non-standard residues; d marks the D form. Peptide text beside a SMILES is read from it. * marks the point of attachment. Cya = N[CH](CS(=O)(=O)O)C(=O)O; X45 = CC(C)CCCCCCCC(O)CC(=O)*; GABA = NCCCC(=O)O

tested on: NCI-H322M; assay: growth of human tumour cells (NCI), 48 h

Structure (SMILES)	GI50
CCCCCCCc1cc(OC(=O)c2c(C)cc(OC)cc2O)cc(O)c1C(=O)O	inactive: 18.1 µM
N#CC12CC3=C(N=C1NC1=C(CCc4ccccc41)C2)c1ccccc1CC3 (stereo unspecified)	inactive: 3.84 µM
COC(=O)C1C(O)CCC2CN3CCc4c([nH]c5ccccc45)C3CC21 (stereo unspecified)	inactive: > 100 µM and inactive: > 77.3 µM
CC(C)(C)c1cc2c(O)c(c1)Cc1cc(C(C)(C)C)cc(c1O)Cc1cc(C(C)(C)C)cc(c1O)Cc1cc(C(C)(C)C)cc(c1O)Cc1cc(C(C)(C)C)cc(c1O)Cc1cc(C(C)(C)C)cc(c1O)Cc1cc(C(C)(C)C)cc(c1O)Cc1cc(C(C)(C)C)cc(c1O)C2	inactive: > 50 µM
Clc1ccc(C(c2ccc(Cl)cc2)N2CCNCC2)cc1	inactive: 2.74 µM
Cc1cc2c(=O)cc(-c3ccc(C(F)(F)F)cc3)oc2c(C(=O)O)c1C	inactive: > 100 µM
O=C(NC(=O)c1c(F)cccc1F)Nc1cccc(Oc2ncc(Cl)cn2)c1	inactive: > 66.5 µM
CN(C)CCNc1ccc(CO)c2sc3ccc(O)cc3c(=O)c12	inactive: 4.09 µM
O=c1cc(-c2ccc(O)c(O)c2)oc2cc(O[C@H]3O[C@H](CO)[C@@H](O)[C@H](O)[C@H]3O)cc(O)c12	inactive: 68.2 µM
COc1ccc2c(c1)[n+]([O-])c(-c1ccc(Br)cc1)c(N)[n+]2[O-]	inactive: 28.6 µM
O=C1NN=C2C=C(c3ccc(Cl)cc3)CC(c3cccc(Cl)c3)C12 (stereo unspecified)	inactive: 28.6 µM
COC(=O)C1CCC(=O)N1CN(C(C)=O)c1ccccc1Cl (stereo unspecified)	inactive: > 100 µM
CCC1(c2ccc(OC)c(OC)c2)CCN2C(=O)C(O)CC21 (stereo unspecified)	inactive: > 100 µM
Cc1cccc(C)c1NC(=O)C(=O)Nn1c(NN)nc2ccccc2c1=O	inactive: > 100 µM
O=C1Cc2c([nH]c3ccccc23)-c2ccccc2N1 [PAULLONE]	inactive: 27.9 µM
COC(=O)c1c2c(cc3c1CC1(Cc4cc5c(c(C)c4C1)CCC5)C3)CCC2 (stereo unspecified)	inactive: > 100 µM
c1ccc(C2=NN(c3nc4ccccc4s3)C3(CCCCC3)N2)nc1	inactive: 57.1 µM
CC[N+](C)(CC)CC(C)(C)C(=O)/C=C/c1ccc(/C=C/C(=O)C(C)(C)C[N+](C)(CC)CC)cc1	inactive: > 100 µM
O=C(CCl)NC(Cc1ccc(F)cc1)C(=O)O (stereo unspecified)	inactive: > 100 µM
Cc1nc2sccn2c1C(=O)NN	inactive: > 100 µM
COc1ccc(NCn2nc(CCCCCCCCc3nn(CNc4ccc(OC)cc4)c(=S)o3)oc2=S)cc1	inactive: > 100 µM
Nc1ncc(Cl)c(NCC2(CO)CC(CCc3ccccc3)C2)n1 (stereo unspecified)	inactive: > 100 µM

Structure (SMILES)	GI50
CC[C@](C)(O)C(=O)O[C@H]1C(=O)O[C@@H]2C[C@H]3C(C)=CC(=O)[C@@H](O)[C@]3(C)[C@H]3[C@@]4(O)OC[C@]32[C@@H]1[C@@H](C)[C@H]4O [GLAUCARUBINONE]	inactive: 2.12 µM
CC(=O)OC[C@]1(C)CCCC2(C)C1CCC1C=C(C)[C@H]3CCC12C3 (stereo partly specified)	inactive: 47.8 µM
C=C1C(=O)C23CC1C[C@H](OC(C)=O)[C@H]2C1(C)C(OC(C)=O)C[C@H](O)C(C)(C)[C@H]1C(=O)[C@@H]3OC(C)=O (stereo partly specified)	inactive: 15.1 µM
C=C1C(=O)OC2CC(=C)C3CC=C(C)C3CC12 (stereo unspecified)	inactive: > 100 µM
Cc1c(C(=O)C/C(=N/NC(=O)C[N+](C)(C)C)C(=O)Nc2ccc(Cl)cc2)[n+]([O-])c2ccccc2[n+]1[O-]	inactive: > 100 µM
O=C(CNc1cccc(Cl)c1)Nn1c(-c2ccccc2)nc2ccccc2c1=O	inactive: 15.4 µM
CC(C)(C)c1cc(C(C)(C)C)c2sc(=O)oc2c1O	inactive: 16 µM
CC(C)CCCCCCCC(O)CC(=O)NC(CS(=O)(=O)O)C(=O)NC(CC(C)C)C(=O)NCCCC(=O)NC(Cc1c[nH]cn1)C(=O)NC(C)C(=O)NC1C(=O)NC(C(C)O)C(=O)NC(Cc2c[nH]cn2)C(=O)NC(C)C(=O)NC(C(C)O)C(=O)OC1C (stereo unspecified) (X45-[Cya]L[GABA]HATTHAT; ester 6-C; configuration not given here)	inactive: > 25 µM
COc1cccc(N(CN2C(=O)CCC2C(=O)O)C(C)=O)c1 (stereo unspecified)	inactive: > 100 µM
Nc1ccc(S(=O)(=O)Nc2nccs2)cc1 [SULFATHIAZOLE]	inactive: > 100 µM
CCCCN(CCCC)C(=O)C(=O)C(C)C(=O)CC (stereo unspecified)	inactive: > 100 µM
O=C(CSc1nc2ccc(I)cc2c(=O)n1Cc1ccccc1)N/N=C/c1ccccc1	inactive: 23.6 µM
Cc1cc2c([N+](=O)[O-])cc3c(c2o1)C(=O)C=CC3=O	inactive: 17 µM
COC(=O)/C(C#N)=C1\NN=NN1CCCc1ccccc1	inactive: > 100 µM
COc1cccc(CCNc2c(C#N)c3n(c4ccccc4[n+]3C)c3ncccc23)c1	inactive: 13.4 µM
O=[N+]([O-])C(=C1NCCN1)/C(Cl)=C(\Cl)Br	inactive: > 100 µM
COC(=O)[C@H](Cc1ccccc1)NC(=O)c1ccc(CNC(=O)/C=C/c2csc(-c3ccccc3)n2)cc1	inactive: 11.6 µM
CCC(c1ccc(OC)cc1)C1NC(=S)NC1=O (stereo unspecified)	inactive: > 50 µM
CC(C)CC1CC2C(=O)N(c3ccccc3)C(=O)C2c2[nH]c3ccccc3c21 (stereo unspecified)	inactive: > 65 µM
CC(=O)O[C@H]1CC[C@@]2(C)C(=CC[C@@H]3[C@@H]2CC[C@](C)(c2nnc(C)o2)[C@H]3CC#N)C1	inactive: > 100 µM
C[N+](C)=C/C=C(\Cl)c1ccc2ccccc2c1	inactive: 17.6 µM
C/C(=N\NS(=O)(=O)c1ccc(C)cc1)C(CN1CCOCC1)C(c1ccccc1)c1c(O)c2ccccc2oc1=O (stereo unspecified)	inactive: > 100 µM

Structure (SMILES)	GI50
CCc1cc(-c2nsc(=O)o2)c(S(=O)(=O)CC)s1	inactive: > 100 µM
C=CC(C)(C)N[C@@H](C(=O)N1CCC[C@H]1c1nc(-c2nc(C(=O)OCC=C(C)C)c(C)o2)c(C)o1)C(C)C	inactive: 24.4 µM
C[N+](C)(C)CC(=O)N/N=C(/Cc1cc(=O)oc2cc(O)ccc12)C(=O)Nc1ccc(Cl)cc1	inactive: > 100 µM
O=c1c2ccccc2oc2c1ccc1ncccc12	inactive: 15.2 µM
CCCCC1(OC(=O)CCC(=O)O)CCC2(CCC(C)C(C/C=C(C)/C=C/C(O)C(C)/C=C/C(=O)O)O2)OC1CC/C(C)=C/C(=O)O (stereo unspecified)	inactive: 3.64 µM
CC(C)(C)OC(=O)NCC(CNC(=O)OC(C)(C)C)c1nc(C(N)=O)cs1	inactive: > 100 µM
COC1=CC(=O)c2c(O)c3c(c(O)c2C1=O)C[C@](C)(O)C[C@@H]3O	inactive: 2.9 µM
COC(=O)NN1C(C)=C(C(=O)OC)C2(C#N)C(C(=O)OC)=C(C)N(NC(=O)OC)C12N (stereo unspecified)	inactive: > 100 µM
CC(=O)[C@]1(O)Cc2c(O)c3c(c(O)c2C(OC2OC(C)C(O)C(O)C2F)C1)C(=O)c1ccccc1C3=O (stereo partly specified)	active: 0.544 µM
CCCCCCCC(CC(=O)NC(CO)C(=O)NC(CO)CC(C)C)OC(=O)CC(CCCCCCC)OC(=O)CC(CCCCCCC)OC1OC(C)C(O)C(OC2OC(C)C(O)C(OC(C)=O)C2O)C1O (stereo unspecified)	inactive: 13.3 µM
CN(C)CCNC(=O)c1cccc2nc3ccc4cccnc4c3nc12	active: 0.303 µM
CCOc1ccccc1NC(=O)CCc1nnc2s/c(=C\CCc3ccccc3)c(=O)n12	inactive: > 100 µM
N#Cc1ccccc1NC(=O)/C(=N\N)C(C(=O)c1ccncc1)C1OC(=O)c2ccccc21 (stereo unspecified)	inactive: > 100 µM
C1CN2CCN3CCN4CCN1[PH]243	inactive: > 100 µM
COC(=O)/C(C#N)=C(/NCc1ccccc1)Nc1ccccc1	inactive: > 100 µM
O=c1[nH]c2cc3cccnc3c(Cl)c2nc1C(F)(F)F	inactive: 38 µM
CC(O[Si](C)(C)C)C1C=CC(C)n2c(=O)n(-c3ccccc3)c(=O)n21 (stereo unspecified)	inactive: > 100 µM
Cc1cc(S(=O)(=O)O)c(NC(=O)C(=O)Cc2cc(=O)oc3cc(O)ccc23)cc1Cl	inactive: > 100 µM
CC(=O)Oc1ccccc1-c1cc2ccccc2oc1=O	inactive: 98.6 µM
O=C1Cc2ccccc2N1/N=C\c1ccc(O)cc1	inactive: > 10 µM
COc1ccc2c(c1)CN1C(=N2)CSC1c1ccccc1Cl (stereo unspecified)	inactive: 19.6 µM
c1ccc2c(c1)N=c1cc3c(cc1N2)=NC12CCCCC1CC1=C(CCCC1)N32 (stereo unspecified)	inactive: > 10 µM

Structure (SMILES)	GI50
C[C@]12CCC(=O)C[C@H]1CCC(O)[C@@H]2Br (stereo partly specified)	inactive: > 100 µM
CN(C)CC1CCCC(CN(C)C)C1=NOC(=O)c1ccccc1 (stereo unspecified)	inactive: > 100 µM
CNC(=S)N/N=C/c1cccc(C)n1	inactive: 52.4 µM
NNc1nnc(-c2ccccc2)nc1Cc1ccccc1	inactive: 8.05 µM
Cc1cn(CC2=NC3CCCCC3N2)c(=O)[nH]c1=O (stereo unspecified)	inactive: > 100 µM
Oc1ccc(/C=C/c2cccc(/C=C/c3ccc(O)c(O)c3)n2)cc1O	inactive: 15.7 µM
CC(=O)Nc1ccc(-c2nc3ccccc3s2)cc1	inactive: 29.5 µM
Cc1ccc(S(=O)(=O)c2[nH]cc(/C(=C\C3CCCCC3)[N+](=O)[O-])c2C2CCCCC2)cc1	inactive: 1.56 µM
COc1ccccc1Cc1ccc(C2C=CC3(CC(=O)C=C3C)C(=O)C2)o1 (stereo unspecified)	inactive: 40.7 µM
COC(=O)C(C(=O)C(=O)Nc1ccccc1C#N)c1nc2ccc([N+](=O)[O-])cc2nc1O (stereo unspecified)	inactive: > 100 µM
COC(=O)[C@@H](COC(=O)/C=C/c1ccc(OC(C)=O)c(OC(C)=O)c1)NC(=O)/C=C/c1ccc(OC(C)=O)c(OC(C)=O)c1	inactive: 24.3 µM
CN(C)Cc1cc(C(C)(C)C)cc(CN(C)C)c1O	inactive: 69.2 µM
CC(NC(=O)C(N)CC(=O)O)NC(=O)C1CCC1 (stereo unspecified)	inactive: > 100 µM
COc1ccc2nc3ccc(OC)cc3c([S+]([O-])CCCl)c2c1 (stereo unspecified)	inactive: 16.2 µM
CN(C)c1nc(N(C)C)nc(N(C)C23CC4CC(CC(C4)C2)C3)n1	inactive: 21.9 µM
CCCCCCCCCCCCCC(=O)OCC(C[As](=O)(O)O)OC(=O)CCCCCCCCCCCCC (stereo unspecified)	inactive: > 100 µM
C=C(CN)CO[Si](C)(C)C(C)(C)C	inactive: > 100 µM
CCC1(Br)C(=O)NC(=O)N(C2CC(O)C(CO)O2)C1N=[N+]=[N-] (stereo unspecified)	inactive: > 100 µM
COC(=O)C1=C(C)N(NC(N)=O)C(C)(O)C12CCOC2=O (stereo unspecified)	inactive: > 100 µM
OCCN(C1=NCCN1)/[N+](=C/c1ccccc1O)[CH-]c1ccccc1O	inactive: > 100 µM
